Here are results for five molecules from PubChem BioAssay AID1963971 (Molecular Pharmacology Branch, DTP, NCI, 2024).

What is called viability, T/C is the ratio of treated to control. Broadly, the IC50 is the concentration at which inhibition is half-maximal.

Certain results were filed several times, with different values. Only these are listed. The source may hold further records. The values listed for one entry are repeated measurements in other runs, samples, wells, individuals or studies. A value given as a limit tells only on which side of the number the result lay.

The assay deals with 953936-095-R-J2-PDC spheroids with HUVEC/MSC, viability. The assay is described as follows: Anticancer human tumor 953936-095-R-J2-PDC patient-derived cervical squamous cell carcinoma cell line growth inhibition [PI3K]. The conditions noted are these: for viability, T/C: compound alone 3.16 µM, stronger effect = lower value. From the text: Combinatorial screen of targeted agents with the PI3K inhibitors inavolisib, alpelisib, duvelisib, and copanlisib in multi-cell type tumor spheroids
A high-throughput screen of multi-cell type tumor spheroids was designed to identify active combinations of targeted small molecules and PI3K pathway inhibitors. Complex spheroids include a stromal component modeled by human endothelial cells (HUVEC) and fibroblasts modeled by human mesenchymal stem cells (MSCs). The concentration ranges selected for each drug and investigational agent were based upon clinically achievable concentrations if the clinical Cmax of the agent was known.
Compounds. The drugs and investigational agents: inavolisib (NSC800729), alpelisib (NSC765974), duvelisib (NSC772469), copanlisib (NSC816437), ipatasertib (NSC767898), afuresertib (NSC778305), talazoparib (NSC767125), sapanisertib (NSC764658), selumetinib (NSC741078), tovorafenib (DAY101, NSC766906), vemurafenib (NSC761431), ravoxertinib (NSC781343), sotorasib (NSC818433), MRTX1133 (NSC 836407), abemaciclib (NSC 768073), palbociclib (NSC758247), venetoclax (NSC 766270), SY5609 (NSC837396), enzalutamide (NSC755605), and darolutamide (NSC825331), were obtained from the National Cancer Institute (NCI) Developmental Therapeutics Program Chemical Repository. The FDA-approved anticancer drug set is available from the NCI Developmental Therapeutics Program. […] The stock solutions were prepared in dimethyl sulfoxide (DMSO, Sigma-Aldrich, St. Louis, MO, cat. D2650) at 800-fold the tested concentration and stored at -70 degrees C prior to their use. All drugs and investigational agents were tested over a range starting from a high concentration at or near the clinical Cmax and decreasing in half-log increments. If the clinical Cmax for an agent had not been determined, the highest concentration tested was 10 microM.
Cell Culture. All cells were maintained in an incubator at 37 degrees C and 5% CO2 with 95% humidity. The PDC lines were cultured according to standard operating procedures established by the NCI PDMR (https://pdmr.cancer.gov/sops/default.htm). All PDCs were thawed and cultured in Matrigel-coated flasks prepared with a working solution of 1X Ham's F-12 nutrient mix, without supplementation (Invitrogen, Waltham, MA, cat. 11765054), 100 U/mL penicillin-streptomycin (Invitrogen, cat. 15140122), and 2.5% Matrigel (Corning Inc., Corning, NY, cat. 354248) for the first three passages. The 354836-022-R-J1-PDC, 475296-252-R-J1-PDC, and 997726-040-R-J2-PDC lines were cultured in 6A media, which includes advanced DMEM/F-12 (Thermo Fisher Scientific, cat. 12634028), 10 mM HEPES (Thermo Fisher Scientific, cat. 15630080), 1X GlutaMAX supplement (Thermo Fisher Scientific, cat. 35050061), 0.1 mg/mL primocin (InvivoGen, San Diego, CA, cat. ant-pm-2), 10% defined fetal bovine serum, heat inactivated (HyClone Laboratories Inc., Logan, UT, cat. SH30070.03HI), 50% L-WRN conditioned media (ATCC, cat. CRL-3276), 1.25 mM N-Acetyl-L-cysteine (Sigma-Aldrich, cat. A9165), 10 mM nicotinamide (Sigma-Aldrich, cat. N0636), 1X B-27 supplement (Thermo Fisher Scientific, cat. 17504044), 1X N-2 supplement (Thermo Fisher Scientific, cat. 17502048), and 10 microM Y-27632 dihydrochloride (Tocris Bioscience, Bristol, United Kingdom, cat. 1254). The 624824-186-R-J2-PDC line was cultured in 6C/Colon 1B media, which includes all 6A media components plus 50 ng/mL human EGF recombinant protein (Thermo Fisher Scientific, cat. PHG0311). […]
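Note: spheroids exposed to compounds for seven days before read-out.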

As to `CNC(=O)c1ccc(N2C(=S)N(c3ccc(C#N)c(C(F)(F)F)c3)C(=O)C2(C)C)cc1F`, the viability, T/C was 111, 88.5, 94.6, 85.4%.
The same measure, in the same setting: as for `CC(Cn1ccc(-c2ccc(C#N)c(Cl)c2)n1)NC(=O)c1cc(C(C)O)[nH]n1` (stereo not given), the figure is 97.9, 93.3, 119, 107%.
For the molecule `C=CC(=O)N1CCN(c2nc(=O)n(-c3c(C)ccnc3C(C)C)c3nc(-c4c(O)cccc4F)c(F)cc23)C(C)C1` (stereo not given), the viability, T/C is listed as 132, 121, 106, 117%.
On to `CC1(C)CCC(Nc2ncc(C(F)(F)F)c(-c3c[nH]c4c(P(C)(C)=O)c(C#N)ccc34)n2)CN1` (stereo not given), for which the IC50 (compound alone) was < 31.6 nM, 3.3 µM, 3.65 µM, 3.36 µM.
Consider `CC1(C)CCC(CN2CCN(c3ccc(C(=O)NS(=O)(=O)c4ccc(NCC5CCOCC5)c([N+](=O)[O-])c4)c(Oc4cnc5[nH]ccc5c4)c3)CC2)=C(c2ccc(Cl)cc2)C1`, for which the viability, T/C is 140, 136, 102, 105%.
